This is an account of results in ChEMBL document CHEMBL4888484, “Replenishing the malaria drug discovery pipeline: Screening and hit evaluation of the MMV Hit Generation Library 1 (HGL1) against asexual blood stage Plasmodium falciparum ,using a nano luciferase reporter read-out” (2022).

Each structure is given as a SMILES string. In all, about 150,000 compounds went through this assay and about 540 (0.36%) showed an effect of 50% or more. This is one part of the list.

The subject of the assay is Plasmodium falciparum. Description: Primary screen in NF54 nanoGlo assay, in single point, at 2uM, 72h; a lower Z score goes with more inhibition. In kind it is functional, Erythrocyte. The following applies: timepoint 72 hour.
Usually % Inhibition stands for the change of the read-out against control, counted positive when it falls. As to `CCN1C(=O)N=C(O)[C@]2(Cc3c(ccc4ccccc34)N(C)C2)C1=O`, the “% Inhibition” value was -11% and the Z score is 1.99.
In the same order, the values of `Cc1cc(C(=O)N[C@H]2CCc3nccn3C2)c(C)n1CC1CC1` are -10% and 2.04.
With `c1cc2c(c(N3CCNCC3)c1)CCN2`, the “% Inhibition” value came to 2% and the Z score was -0.25.
In the same order, the values of `CN1CCN(c2nnc(-c3ccon3)s2)C[C@@]12CCOC2` are 0% and 0.
In the same order, the values of `O=C(CN1CCN2CCC[C@H]2C1)Nc1ccc(Cl)cn1` are -2% and 0.36.
In the same order, the values of `CC[C@]1(c2ccccc2)C(=O)NC(=O)N(C(=O)c2ccccc2F)C1=O` are -26% and 3.01.
For the compound `Nc1ccc2[nH]c(CCN3CCOCC3)nc2c1`, the “% Inhibition” value amounted to 1% and the Z score was -0.2.
Consider `Cc1ccccc1[C@@H]1c2cccn2-c2ccccc2CN1C(=O)NCc1ccc(F)cc1`, for which the “% Inhibition” value came out at 2% and the Z score is recorded as -0.21.
For `O=C(N/C=C/c1ccco1)OCC(Cl)(Cl)Cl` the same measures were 1% and -0.18.
In the same order, the values of `Cc1cc(NC(=O)[C@H](C)N2CCCC3(CCCCC3)C2)on1` are -3% and 0.41.
In the same order, the values of `CCc1n[nH]c(C(=O)N2C[C@@H](c3ccc(C)cc3)[C@@H]3[C@H]2C2CCN3CC2)c1C` are -5% and 0.95.
With `C[C@H]1CN(Cc2cccnc2)CCN1C(=O)Cc1ccc(F)c(Br)c1`, the “% Inhibition” value was -16% and the Z score stood at 1.45.
Consider `O=C(Cc1ccc(CO)cc1)N1CCN(CC2CC2)[C@@H]2CS(=O)(=O)C[C@@H]21`, for which the “% Inhibition” value is given as -11% and the Z score is given as 1.64.
In the same order, the values of `CN1CC(C(=O)c2ccc(Cl)cc2)C(c2ccccc2)C1` (stereo not given) are -1% and 0.14.
Turning to `CCN1CCN(C(=O)CCc2c(C)noc2C)[C@H]2CS(=O)(=O)C[C@H]21`, the “% Inhibition” value is on record as 6% and the Z score is given as -1.14.
In the same order, the values of `CC(C)CC1C(F)(F)C12CC1CCC(C2)N1` (stereo not given) are -4% and 0.84.
In the same order, the values of `Cc1nc2ccccc2c(=O)n1-c1ccc2ccccc2c1` are -3% and 0.38.
For `C=CCOc1cccc2c1cc(C(=O)N1CCC(C)CC1)n2Cc1c(F)cccc1F` the same measures were -2% and 0.43.
Consider `CC(C)c1ccc(CC2(CN3C[C@H]4C[C@H](C3)c3cccc(=O)n3C4)C(=O)NC(=O)N(c3ccccc3)C2=O)cc1` (stereo not given in full), for which the “% Inhibition” value is on record as 27% and the Z score was -3.49.
For the compound `Cc1ccc(CNC(=O)[C@H]2CCCN(S(=O)(=O)c3ccc4[nH]c(=O)oc4c3)C2)o1`, the “% Inhibition” value is recorded as -21% and the Z score is 2.14.
In the same order, the values of `O=c1c2ccccc2nc(-c2ccoc2)n1-c1ccccc1` are -6% and 0.72.
For `CN1CC[C@]2(CCN(Cc3cnc(C(C)(C)C)nc3)C2)C1` the same measures were -1% and 0.09.
For `C[C@@H](CCCC(C)(C)O)NC1CCCCCCC1` the same measures were -14% and 1.93.
Take `CCn1c(=O)oc2cc(-c3noc(-c4n[nH]c5c4CCCC5)n3)ccc21`: the “% Inhibition” value is -11% and the Z score is 1.03.
In the same order, the values of `CN1C(=O)N[C@@H]2CN(Cc3cccc4nccn34)CC[C@@H]21` are -11% and 2.1.
For `O=C1C[C@@]2(CCN(CCCc3cccnc3)C2)Oc2ccccc21`, the “% Inhibition” value was found to be 6% and the Z score is recorded as -0.76.
In the same order, the values of `Cn1ncc2c(N3CC4CC3CN4Cc3ccccc3)ncnc21` (stereo not given) are -12% and 1.65.
In the same order, the values of `Cn1nccc1C1=CC2CCC(C1)N2CCN1CCCS1(=O)=O` (stereo not given) are -6% and 0.75.
For `CNc1ncc(CN(C)c2nc(N(C)C)nc(C)c2C)cn1` the same measures were -10% and 1.34.
With `O=S(=O)(c1ccccc1Br)N1C2CCC1c1cncnc1C2` (stereo not given), the “% Inhibition” value is listed as -12% and the Z score came to 1.49.
In the same order, the values of `Clc1cccc2c(N3CC[C@]4(CCNC4)C3)ccnc12` are 23% and -3.12.
For `CCN(CC)C[C@H]1C[N@@]2CC[C@H]1C[C@@H]2CNS(=O)(=O)c1ccc(C)cc1` the same measures were -10% and 1.58.
As to `CN1CC[C@]2(CCN(c3ccnc4ccsc34)C2)C1`, the “% Inhibition” value was found to be 98% and the Z score is listed as -10.65.
In the same order, the values of `CCc1ccc(CN[C@@H](CC)Cn2ccnc2)nc1` are 5% and -0.99.
In the case of `Cc1ccc(C2CN(C)CC2C(=O)c2ccc(F)cc2)cc1` (stereo not given), the “% Inhibition” value is reported as -1% and the Z score turned out to be 0.19.
For `CN1CCC2=C(C1)C(O)=NC1(CCCCC1)N2` the same measures were -3% and 0.31.
In the same order, the values of `Cc1cc(Cl)cc2c(N3CC[C@@]4(O)CCNC[C@H]4C3)ccnc12` are 3% and -0.52.
Turning to `CCc1nnc(CN2CCC(c3ccnc4ccccc34)CC2)o1`, the “% Inhibition” value was -3% and the Z score stood at 0.52.
In the same order, the values of `CCOC[C@@H](O)CN(C1CCCCC1)C1CC1` are -6% and 0.89.
For `Cc1cccnc1C(=O)N1CC[C@@H]2CN(Cc3cccnc3)[C@@H]2C1` the same measures were -14% and 1.92.
As for `O=C1NC(=O)C2(Cc3ccccc3N3CCN(c4ccccc4)CC32)C(=O)N1CCc1ccccc1` (stereo not given), the “% Inhibition” value is -4% and the Z score is 0.54.
In the same order, the values of `CCCN1C(=O)NC(=O)C2(Cc3cc4cc(C)ccc4nc3N3CCCCC32)C1=O` (stereo not given) are -10% and 1.31.
In the same order, the values of `COc1ccc(CN2C(=O)NC(=O)C(CCc3ccccn3)(CCc3ccccn3)C2=O)cc1` are 2% and -0.33.
For `Fc1ccc(/C=C/CN2CC[C@@H]3CNC[C@@H]32)cc1` the same measures were -13% and 2.46.
With `Cc1cccc(CC(=O)N2CCC[C@](c3nnnn3C3CCCC3)(N(C)C)C2)c1`, the “% Inhibition” value is given as -12% and the Z score was 1.63.
For `O=C(c1cn(C[C@H](O)c2ccccc2F)nn1)N1CCC2(CC1)OCCO2` the same measures were -15% and 2.84.
In the same order, the values of `Cc1ncn(C[C@H](C)NC2CCCCC2)c1C` are -12% and 1.59.
In the same order, the values of `CCc1cc(CN[C@@H](C)Cc2ccc(F)cc2)on1` are -5% and 0.53.
As for `CC(C)(C)OC(=O)CN1CCC2(CCCCC2)C1`, the “% Inhibition” value is given as -1% and the Z score was determined as 0.09.
`COCc1nn(Cc2ccc(C#N)cc2Br)c(=O)o1`: the “% Inhibition” value was -14% and the Z score turned out to be 1.2.
For `CCc1ccc(CC)c(NC(=O)CC2CC3CCC(C2)N3)c1` (stereo not given) the same measures were -33% and 3.85.
For `CC[C@@H](Cn1ccnc1)NCc1ccc(Cl)o1` the same measures were -14% and 1.26.
Turning to `Cn1cccc1C(=O)C(Cl)(Cl)Cl`, the “% Inhibition” value was found to be 26% and the Z score is listed as -3.09.
For `C[C@H](NC(=O)CN1CCCC1=O)C1=CCCCC1`, the “% Inhibition” value is -5% and the Z score was found to be 0.97.
For `CC(C)c1ncc(C(=O)N[C@H]2CN3CCC2CC3)cn1` the same measures were 2% and -0.19.
